The values below come from PMC4336329 (PLoS ONE, 2015).

Among all 310,000 compounds or so, about 2,200 (0.71%) showed an effect of 50% or more. The effect is printed as a negative number. The list shows a part of the results.

Chain of human ether-à-go-go-related gene (hERG) potassium channel (Q12809 whole entry, looked up): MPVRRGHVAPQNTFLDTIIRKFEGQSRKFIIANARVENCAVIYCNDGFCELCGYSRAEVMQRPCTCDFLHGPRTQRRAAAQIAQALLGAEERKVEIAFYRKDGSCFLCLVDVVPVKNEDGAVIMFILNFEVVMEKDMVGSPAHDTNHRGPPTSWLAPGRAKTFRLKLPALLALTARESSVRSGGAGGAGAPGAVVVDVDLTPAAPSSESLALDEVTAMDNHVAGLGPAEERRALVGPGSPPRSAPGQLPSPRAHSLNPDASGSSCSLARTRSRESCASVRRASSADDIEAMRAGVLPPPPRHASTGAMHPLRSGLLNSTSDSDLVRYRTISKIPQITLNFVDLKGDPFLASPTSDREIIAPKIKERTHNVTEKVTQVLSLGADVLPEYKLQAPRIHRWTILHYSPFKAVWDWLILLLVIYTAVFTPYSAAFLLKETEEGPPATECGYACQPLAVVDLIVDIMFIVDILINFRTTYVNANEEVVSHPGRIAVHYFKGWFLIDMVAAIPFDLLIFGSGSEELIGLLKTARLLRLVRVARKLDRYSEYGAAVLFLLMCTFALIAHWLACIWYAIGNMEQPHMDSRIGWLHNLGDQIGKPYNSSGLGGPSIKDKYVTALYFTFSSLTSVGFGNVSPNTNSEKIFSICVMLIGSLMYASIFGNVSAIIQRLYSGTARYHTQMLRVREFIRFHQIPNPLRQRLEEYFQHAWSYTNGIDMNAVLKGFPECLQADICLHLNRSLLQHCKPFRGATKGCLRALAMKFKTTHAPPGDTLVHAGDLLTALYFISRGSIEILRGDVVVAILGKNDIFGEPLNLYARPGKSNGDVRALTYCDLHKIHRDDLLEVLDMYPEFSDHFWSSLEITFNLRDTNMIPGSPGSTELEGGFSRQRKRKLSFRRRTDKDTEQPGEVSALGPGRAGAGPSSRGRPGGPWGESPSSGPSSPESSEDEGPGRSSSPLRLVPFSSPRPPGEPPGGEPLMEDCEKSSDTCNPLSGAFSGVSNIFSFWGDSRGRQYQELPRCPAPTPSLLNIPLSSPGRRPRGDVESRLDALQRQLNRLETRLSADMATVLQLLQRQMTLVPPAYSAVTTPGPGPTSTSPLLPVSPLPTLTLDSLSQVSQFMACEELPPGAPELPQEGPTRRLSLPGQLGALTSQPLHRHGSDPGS

The test has as its target human ether-à-go-go-related gene (hERG) potassium channel (human, UniProt Q12809). Nature of the test: primary screen, population patch clamp on CHO cells stably expressing hERG.
`O=Cc1c(-c2ccc(F)cc2)nc2ccccn12`: the “hERG current change (%, negative = inhibition) at 1uM” value was 7.15%.
Under `COc1cc(NC(=O)CSc2nnc3c(n2)[nH]c2ccc(S(=O)(=O)NC(C)C)cc23)cc(OC)c1OC` stands 7.39%; under `CCOc1ccc(Br)cc1S(=O)(=O)Nc1cccc(S(=O)(=O)N(C)c2ccccc2)c1`, 11.7%; under `Cc1ccc(Cc2nc(-c3cccc(C)c3)no2)cc1`, 16.5%.
`Cc1sc(N)c(C(=O)c2ccccc2Cl)c1C`: the “hERG current change (%, negative = inhibition) at 1uM” value came out at 8.67%.
Regarding `COc1ccc2nc(NC(=O)CSc3ccccc3)sc2c1`, the “hERG current change (%, negative = inhibition) at 1uM” value is recorded as -3.66%.
As for `Cc1cccc(C)c1NC(=S)Nc1c(C)n(C)n(-c2ccccc2)c1=O`, the “hERG current change (%, negative = inhibition) at 1uM” value amounted to 2.99%.
Then `COc1ccc(C2(CNC(=O)c3ccccc3)CCCC2)cc1OC`, with 5.36%; and `N#CCCn1cc(C(=O)O)c(-c2cc3ccccc3o2)n1`, with 22.2%; and `Cn1c(CSc2nc3ccccc3s2)n[nH]c1=S`, with 14.9%.
Turning to `C/C(=N\NC(=O)CN(c1ccccc1)S(C)(=O)=O)c1ccccc1O`, the “hERG current change (%, negative = inhibition) at 1uM” value is given as 8.18%.
Then `O=C(c1cccc(S(=O)(=O)Nc2cccc(C(F)(F)F)c2)c1)N1CCOCC1`, with 4.23%; and `O=C(NC(=O)c1ccccc1F)Nc1nc(-c2cccs2)cc(C(F)(F)F)n1`, with 2.15%; and `CCC(C)c1ccc(OCC(=O)Nc2ccc3c(c2)C(=O)NC3=O)cc1` (stereo not drawn), with 13.5%.
Consider `COc1cc(/C=N/NC(=O)c2cccnc2)ccc1OC(=O)c1ccc([N+](=O)[O-])cc1`, for which the “hERG current change (%, negative = inhibition) at 1uM” value stood at 14.3%.
With `CN(C)S(=O)(=O)c1ccc(C(=O)OCCCN=C2NS(=O)(=O)c3ccccc32)cc1`, the “hERG current change (%, negative = inhibition) at 1uM” value is on record as -5.83%.
In the case of `Cc1cc(C)cc(NS(=O)(=O)c2csc(C(N)=O)c2)c1`, the “hERG current change (%, negative = inhibition) at 1uM” value was found to be 15.1%.
On to `Nc1cccc(-c2nc3ccccc3[nH]2)c1`, for which the “hERG current change (%, negative = inhibition) at 1uM” value is on record as 8.94%.
As for `COc1ccccc1N1CCN(S(=O)(=O)CCNC(=O)c2ccccc2Br)CC1`, the “hERG current change (%, negative = inhibition) at 1uM” value was 11.6%.
Turning to `CCCCN(CCCNC(=O)CN1C(=O)COc2ccccc21)c1ccccc1`, the “hERG current change (%, negative = inhibition) at 1uM” value was found to be 3.47%.
In the case of `CCOC(=O)c1cc(-c2ccccc2)sc1NC(=O)COC(=O)c1ccc(Cl)c(S(N)(=O)=O)c1`, the “hERG current change (%, negative = inhibition) at 1uM” value is recorded as 5.17%.
Consider `CCOc1ccc2nc(N3CCC(C(=O)N4CCN(c5ncccn5)CC4)CC3)sc2c1`, for which the “hERG current change (%, negative = inhibition) at 1uM” value was 4.83%.
Take `COc1ccc(-c2nc(CCl)cs2)cc1.Cl`: the “hERG current change (%, negative = inhibition) at 1uM” value worked out at 8.51%.
With `COc1ccccc1/C=C/C(=O)Nc1ccc(S(=O)(=O)Nc2cc(C)nc(C)n2)cc1`, the “hERG current change (%, negative = inhibition) at 1uM” value was 12%.
`O=C(c1cccs1)N1CCCc2ccccc21`: the “hERG current change (%, negative = inhibition) at 1uM” value is -10.4%.
Regarding `CCn1c(=O)n(CC)c2cc(S(=O)(=O)Nc3ccccc3C)c(C)cc21`, the “hERG current change (%, negative = inhibition) at 1uM” value came out at 11%.
Take `C/C(=N\NC(=O)c1cc2ccccc2cc1O)c1ccc(C)o1`: the “hERG current change (%, negative = inhibition) at 1uM” value was found to be 10.6%.
For the compound `COc1ccc2[nH]c(=O)c(CN(Cc3ccco3)C(c3nnnn3Cc3ccccc3)C(C)C)cc2c1` (stereo not drawn), the “hERG current change (%, negative = inhibition) at 1uM” value is on record as 5.65%.
Turning to `CCC1(CC)NC(=O)N(CC(=O)NC(=O)NCc2ccccc2)C1=O`, the “hERG current change (%, negative = inhibition) at 1uM” value turned out to be 14.7%.
In the case of `CC(Sc1ccccc1)C(=O)Nc1ccc(N2CCOCC2)cc1` (stereo not drawn), the “hERG current change (%, negative = inhibition) at 1uM” value stood at 3.78%.
For the compound `O=C(CSCc1ccc(Cl)c(Cl)c1)Nc1c[nH]c(=O)[nH]c1=O`, the “hERG current change (%, negative = inhibition) at 1uM” value was 20%.
Consider `COc1ccc(C2C(C(N)=O)=C(C)Nc3nc(-c4cccc(Cl)c4)nn32)cc1OC` (stereo not drawn), for which the “hERG current change (%, negative = inhibition) at 1uM” value came out at 7.76%.
Then `COc1ccc(C2=CC(c3cccc(OC)c3)n3nnnc3N2)cc1` (stereo not drawn), with 13.9%.
For `O=C(CCSc1nnc2scc(-c3ccccc3)n12)Nc1nc(-c2ccccc2)ns1`, the “hERG current change (%, negative = inhibition) at 1uM” value was 8.51%.
In the case of `O=C(CCC(=O)c1ccc(F)cc1)Nc1cccnc1`, the “hERG current change (%, negative = inhibition) at 1uM” value amounted to 12.8%.
Under `O=C(NCc1ccco1)c1cc(-c2ccccc2)nc2ccccc12` stands 8.77%; under `N/C(=N\c1nc(C(F)(F)F)cc(=O)[nH]1)Nc1ccc(Cl)cc1`, 0.337%; under `Cc1ccccc1Cn1c(=O)sc2ccccc2c1=O`, 11.3%.
Under `CCN(CC)C(=O)CS(=O)(=O)CC(=O)Nc1cc(OCCOC)c(Cl)cc1Cl` stands 9.99%; under `COc1ccc(C(O)c2nccn2Cc2ccccc2)cc1` (stereo not drawn), 9.44%.
For `CSc1ccc(/C=C/C(=O)OCC(=O)NC2CCS(=O)(=O)C2)cc1` (stereo not drawn), the “hERG current change (%, negative = inhibition) at 1uM” value is reported as 8.73%.
As to `CC(C)(C)C(=O)Nc1ccccc1C(=O)Nc1ccncc1`, the “hERG current change (%, negative = inhibition) at 1uM” value was determined as 14.1%.
As for `Cc1c(NC2(C#N)CCCCC2)c(=O)n(-c2ccccc2)n1C`, the “hERG current change (%, negative = inhibition) at 1uM” value is listed as 14.3%.
`CCOc1cc2[nH]c(=O)n(Cc3ccc(C(=O)NCCCN4CCCC4=O)cc3)c(=O)c2cc1OCC`: the “hERG current change (%, negative = inhibition) at 1uM” value is recorded as 16.9%.
As to `CCc1nnc(NC(=O)C2CCN(C(=O)NC3CCCCC3)CC2)s1`, the “hERG current change (%, negative = inhibition) at 1uM” value is recorded as 3.69%.
On to `O=C(NNS(=O)(=O)c1ccccc1)c1ccc([N+](=O)[O-])cc1`, for which the “hERG current change (%, negative = inhibition) at 1uM” value was found to be 12.7%.
Turning to `Cc1ccc(C(=O)CSc2nnc3c4ccccc4nc(C(C)(C)C)n23)cc1`, the “hERG current change (%, negative = inhibition) at 1uM” value is 12.2%.
As for `O=C(N/N=C/c1cccc2nccnc12)c1ccccc1O`, the “hERG current change (%, negative = inhibition) at 1uM” value is on record as 15.1%.
For `O=C(O)c1ccc(/C=C2\CCCc3c2nc2ccccc2c3C(=O)O)cc1`, the “hERG current change (%, negative = inhibition) at 1uM” value is reported as 16.4%.
Consider `CCN(C(=O)COC(=O)Cc1coc2cc(C)ccc12)c1c(N)n(Cc2ccccc2)c(=O)[nH]c1=O`, for which the “hERG current change (%, negative = inhibition) at 1uM” value is listed as 11.2%.
With `CC1(C)C(=O)OC(/C=C/c2cccc([N+](=O)[O-])c2)C(C)(C)C1=O` (stereo not drawn), the “hERG current change (%, negative = inhibition) at 1uM” value was determined as 16%.
As for `CCc1ccc(C2C(C#N)=C(N)Oc3n[nH]c(CC(=O)OC)c32)cc1` (stereo not drawn), the “hERG current change (%, negative = inhibition) at 1uM” value was determined as 9.77%.
On to `CCn1c(SCC(=O)c2ccc3ccccc3c2)nnc1-c1ccco1`, for which the “hERG current change (%, negative = inhibition) at 1uM” value is recorded as 11%.
Then `CC(=O)c1ccc(N(CC(=O)NCC2CCCO2)C(=O)CCC(=O)Nc2cc(C)on2)cc1` (stereo not drawn), with 18.8%; and `COC(=O)c1[nH]c2cc(C)ccc2c1NC(=O)CN1CCCc2ccccc21`, with 8.77%.
With `CCOC(=O)Cc1csc(NC(=O)c2ccc(S(=O)(=O)N(CCOC)CCOC)cc2)n1`, the “hERG current change (%, negative = inhibition) at 1uM” value was 5.39%.
For `Cc1ccc(S(=O)(=O)c2ccc(Cl)cc2)cc1S(N)(=O)=O`, the “hERG current change (%, negative = inhibition) at 1uM” value is 12.7%.
With `Cc1ccc(NC(=O)C(OC(=O)c2ccc(NC(N)=O)cc2)c2ccccc2)cc1Cl` (stereo not drawn), the “hERG current change (%, negative = inhibition) at 1uM” value came to 1.35%.
In the case of `CC1C(C#N)=C(N)OC2=C1C(=O)CC(C)(C)C2` (stereo not drawn), the “hERG current change (%, negative = inhibition) at 1uM” value amounted to 1.44%.
Under `CCCCCOC(=O)CCN1C(=O)/C(=C2\SC(=S)N(CCC(=O)OCCCCC)C2=O)SC1=S` stands 11.6%; under `CC(=O)c1sc(NC(=O)C=C(C)C)nc1C`, 10.7%.
Regarding `CN(CC(=O)NCc1ccncc1)S(=O)(=O)c1ccccc1`, the “hERG current change (%, negative = inhibition) at 1uM” value stood at 0.0167%.
With `Nc1c(C(=O)Nc2ccc(F)cc2)sc(=S)n1-c1ccccc1F`, the “hERG current change (%, negative = inhibition) at 1uM” value came out at 9.98%.
Regarding `COc1ccc2c(c1)c(N=NC(N)=S)c(O)n2CC(=O)c1ccccc1`, the “hERG current change (%, negative = inhibition) at 1uM” value came to 9.64%.
For the compound `CC1=CC(=O)c2ccccc2C1=O`, the “hERG current change (%, negative = inhibition) at 1uM” value came to 4.13%.
In the case of `Cc1cc2nc3ccc(N(C)C)cc3nc2cc1N`, the “hERG current change (%, negative = inhibition) at 1uM” value came to 13.3%.
Under `COc1cc(NS(=O)(=O)c2ccc(NC(=S)NC(=O)/C=C/c3ccc(OC)c(OC)c3)cc2)ncn1` stands 9.81%; under `CSc1cccc(NC(=O)c2ccc(Cl)nc2)c1`, 8.65%; under `O=C(CCC(=O)Nc1ccccc1)NNS(=O)(=O)c1ccccc1[N+](=O)[O-]`, 12.2%.
Take `COc1cc(CN(C)CC(=O)c2[nH]c(C)c(C(C)=O)c2C)ccc1OC(F)F`: the “hERG current change (%, negative = inhibition) at 1uM” value is -4.46%.
For the compound `CN(Cc1ccc(Cl)cc1)C(=O)c1ccc2ccccc2n1`, the “hERG current change (%, negative = inhibition) at 1uM” value is on record as -1.85%.
For the compound `COCCCNC(=O)C1CCCN(C(=O)Nc2ccc(OC)cc2)C1` (stereo not drawn), the “hERG current change (%, negative = inhibition) at 1uM” value is reported as -4.48%.
Turning to `COc1ccccc1N1CCN(C(=O)CC2NC3CCCCC3NC2=O)CC1` (stereo not drawn), the “hERG current change (%, negative = inhibition) at 1uM” value was -1.28%.
For `COc1cc2c(cc1OC)C(c1cccc(OC)c1OC)CC(=O)N2` (stereo not drawn), the “hERG current change (%, negative = inhibition) at 1uM” value is listed as -12.7%.
With `CN1CCN(C2=Nc3cc(F)ccc3Cc3ccccc32)CC1`, the “hERG current change (%, negative = inhibition) at 1uM” value is listed as -4.57%.
For `O=C1CCN(Cc2ccccc2)CCN1[C@H](COc1ccccc1)c1ccccc1`, the “hERG current change (%, negative = inhibition) at 1uM” value is 2.66%.
Regarding `CC(=O)Nc1ccc(SCC(=O)N(CCC#N)c2ccc(C)cc2)cc1`, the “hERG current change (%, negative = inhibition) at 1uM” value is recorded as -9.84%.
As for `CC(=O)Oc1oc(-c2ccccc2)nc1C=Nc1ccccc1`, the “hERG current change (%, negative = inhibition) at 1uM” value turned out to be 10.1%.
Turning to `O=C(COc1ccc(S(=O)(=O)N2CCOCC2)cc1)N1CCN(c2ccccc2)CC1`, the “hERG current change (%, negative = inhibition) at 1uM” value stood at 13.5%.
Consider `CCc1ccc(S(=O)(=O)NCc2csc(-c3cccnc3)n2)s1`, for which the “hERG current change (%, negative = inhibition) at 1uM” value came to 9.17%.
For `CC1CN(C2CCN(S(=O)(=O)c3ccccc3)CC2)CC(C)O1` (stereo not drawn), the “hERG current change (%, negative = inhibition) at 1uM” value was 4.56%.
Take `O=C(OCC(=O)N1CCCCC1)c1ccc2c(c1)C(=O)N(Cc1ccco1)C2=O`: the “hERG current change (%, negative = inhibition) at 1uM” value is on record as -6.09%.
As for `Cn1cc(Br)c(C(=O)NC2CCCCC2)n1`, the “hERG current change (%, negative = inhibition) at 1uM” value is on record as -1.04%.
Regarding `CCCN(CCC)Cc1c(C(=O)N/N=C/c2cccs2)nnn1-c1nonc1N`, the “hERG current change (%, negative = inhibition) at 1uM” value was 2.55%.
Take `CSc1ccc(/C=N/NC(=O)CN2CCN(Cc3ccccc3)CC2)cc1`: the “hERG current change (%, negative = inhibition) at 1uM” value is recorded as -60%.
Turning to `CCOc1ccc(S(=O)(=O)NCCC(=O)NCC(c2ccco2)N2CCCCC2)cc1` (stereo not drawn), the “hERG current change (%, negative = inhibition) at 1uM” value turned out to be 7.47%.
For `Cc1ccc(S(=O)(=O)CCC(=O)OCC(=O)NC(=O)c2ccccc2)cc1`, the “hERG current change (%, negative = inhibition) at 1uM” value is 19.8%.
